The list shows a part of the results.

The assay has as its target T1, OsWOX13 (Oryza sativa, UniProt Q5QMM3 1-267).
T1 sequence: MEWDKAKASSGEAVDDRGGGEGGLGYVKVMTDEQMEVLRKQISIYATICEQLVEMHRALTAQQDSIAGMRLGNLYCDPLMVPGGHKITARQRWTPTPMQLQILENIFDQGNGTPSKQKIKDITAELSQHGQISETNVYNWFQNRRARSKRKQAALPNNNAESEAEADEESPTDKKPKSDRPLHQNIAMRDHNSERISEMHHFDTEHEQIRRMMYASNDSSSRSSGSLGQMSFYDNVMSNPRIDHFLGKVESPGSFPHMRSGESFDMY
As to the kind of experiment: protein-binding microarray (RPBM); PBS, 2% BSA, 51.3 ng/ul salmon testes DNA, 50 uM zinc acetate, 200 nM TF, 25 C, 1 h; high values mean tight binding. The conditions noted are these: protein: recombinant; tags: N-terminal polyhistidine and DsRed monomer fusion (pET32a); label: CyDye5-dUTP incorporated in the synthesized complementary strand; 3' TTTTT single-stranded linker to array surface; dsDNA, one strand shown. The essentials:
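Per-feature fluorescence intensity (arbitrary units), read on an Axon 4000B scanner, is the binding signal. Transcription factors carrying an N-terminal polyhistidine tag and DsRed fusion were expressed in E. coli BL21-CodonPlus and purified on Ni–NTA. A custom Agilent array, made double-stranded by primer extension with Cy5-dUTP and blocked with 2% BSA, was incubated with 200 nM protein in PBS, 2% BSA, salmon testes DNA and 50 µM zinc acetate at 25 °C for 1 h and then washed.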
With “ATTAATTTGTGTGTGAAACTGACATGTGGGTCCCACGGGGCGGAGTCACCTAGTGCAG”, the binding signal was 23800 fluorescence intensity (a.u.).
The value for “TGTGAGTGATCAAATAATTGATCATAATTTTCTATCGATTCGGAGTCACCTAGTGCAG” was 37500 fluorescence intensity (a.u.); that for “TTTTATTTTACCATCTAATTACTACAATAGAATTTAACTGCGGAGTCACCTAGTGCAG” was 3190 fluorescence intensity (a.u.).
The value for “CTTTTAATTGGTTTTACAGTTTGGTGAAAGGTACAGCATGCGGAGTCACCTAGTGCAG” was 28000 fluorescence intensity (a.u.); that for “AGAGCACACTACACTCCGTTGATTGACCCTTCATGGCTAACGGAGTCACCTAGTGCAG” was 11400 fluorescence intensity (a.u.); that for “CAATGGTTGATTGCAACATATATATGTAGTGGCTGCAGCTCGGAGTCACCTAGTGCAG” was 14200 fluorescence intensity (a.u.).
For “CTGTCGTGTTTCCTCTGATTAGTTCATACAGCATCTGTTACGGAGTCACCTAGTGCAG”, the binding signal is 4150 fluorescence intensity (a.u.).
The value for “GAACTAACTGAGTGTCATATTGGAAGATGTGTAAAATTGCCGGAGTCACCTAGTGCAG” was 4150 fluorescence intensity (a.u.); that for “AAAGATAAATTTGACTGTGAATGTGAATATATGTTAATTACGGAGTCACCTAGTGCAG” was 8690 fluorescence intensity (a.u.).
For “CTATGATGATAGAGAACGTTACCATAATAGAGAACGTTATCGGAGTCACCTAGTGCAG” the value was 9610 fluorescence intensity (a.u.).
The value for “ACAAAATTTTGAACAAATGTGATGGTATGCCATTAGCTATCGGAGTCACCTAGTGCAG” was 4480 fluorescence intensity (a.u.); that for “CTCATAAGTTGATTTATAAGCATAAATAAGAGGGATTTGTCGGAGTCACCTAGTGCAG” was 11600 fluorescence intensity (a.u.); that for “TGTTAATTACTTGTTCTACTGCAGTTAATTAATGGATATGCGGAGTCACCTAGTGCAG” was 35300 fluorescence intensity (a.u.).
As to “CCATTTCAACAGTTAATTTAGGCTATTTTGGCTTCAATCCCGGAGTCACCTAGTGCAG”, the binding signal was 4180 fluorescence intensity (a.u.).
For “GGCTCTCTGATTTGTTTGCGTTTGTGCAGCGCGTCTTCCCCGGAGTCACCTAGTGCAG” the value was 14500 fluorescence intensity (a.u.); for “ACTCTAAATTAGTGTCTAAAGACAGGGACTAAAGTTAAGTCGGAGTCACCTAGTGCAG”, 9800 fluorescence intensity (a.u.).
For “ATTGACAGACACACCCGGTTGATGTACGTAATACTAACACCGGAGTCACCTAGTGCAG” the value was 22600 fluorescence intensity (a.u.); for “TTTAATTTTGTTTGCGATCAAGCAGTCAAAATTCTCTGACCGGAGTCACCTAGTGCAG”, 18700 fluorescence intensity (a.u.); for “GGATTGATGAAAGAATTCTGTGGACTTGGTTCTTTGATGGCGGAGTCACCTAGTGCAG”, 8550 fluorescence intensity (a.u.).
Turning to “GCTTGTCCTTTTCAATTAGACATGTTGACATGGCAGTAGGCGGAGTCACCTAGTGCAG”, the binding signal is 5480 fluorescence intensity (a.u.).
For “GACGGATTGAATCGAGGCTTACCAAAACTAGGCATAGGCACGGAGTCACCTAGTGCAG” the value was 5640 fluorescence intensity (a.u.); for “CTTTAACATAGATCTAATTGGCTTGAGTCAAACAAGAACACGGAGTCACCTAGTGCAG”, 17200 fluorescence intensity (a.u.).
In the case of “CCTACTAACTCAATCTATAAATATAAGCATTTCTAGGTGCCGGAGTCACCTAGTGCAG”, the binding signal is 3470 fluorescence intensity (a.u.).
The value for “TATATATATATATATATATATATATATATAAAACACAAATCGGAGTCACCTAGTGCAG” was 3700 fluorescence intensity (a.u.); that for “GGTTGTAATAACGTGTAATTAATTGAGTTTTAATTATTTCCGGAGTCACCTAGTGCAG” was 12900 fluorescence intensity (a.u.).
In the case of “TTTAACAATATTGTCAATTTACCAAAATTTTGATATTGCTCGGAGTCACCTAGTGCAG”, the binding signal is 14200 fluorescence intensity (a.u.).
For “ACTTTTATCACTGTCCATCTCCTCTATGCCGTGGACATGACGGAGTCACCTAGTGCAG” the value was 3240 fluorescence intensity (a.u.); for “GTGCAAAATGATTAGAAGACCAAGAGAGTAGACTCGGTCACGGAGTCACCTAGTGCAG”, 11800 fluorescence intensity (a.u.).
As to “CACTAATAATTTGCACCATTGATTTTAGTACGTTGTAGTTCGGAGTCACCTAGTGCAG”, the binding signal was 33600 fluorescence intensity (a.u.).
For “ACACATAGGTAATTAAGATTAATTGCGATCGAGATCATATCGGAGTCACCTAGTGCAG” the value was 33900 fluorescence intensity (a.u.); for “TGCTCGTGATTGCAAATAATTCGCAACGCTACAGTAATCTCGGAGTCACCTAGTGCAG”, 6770 fluorescence intensity (a.u.); for “ATCTTCTTGTAAATATTTAATTATAACGGATATAACAGTGCGGAGTCACCTAGTGCAG”, 3580 fluorescence intensity (a.u.).
The value for “ACTGATTGTCCAGCGCTATTCTGTTATGTGTGATTTTAACCGGAGTCACCTAGTGCAG” was 36500 fluorescence intensity (a.u.).
For “ATTGATTTCTATTTGTGAATCTCCATCTAAAGTTGGTGAACGGAGTCACCTAGTGCAG” the value was 32500 fluorescence intensity (a.u.).
In the case of “GTACCATTGATCATATCTATGATTTGATTCTTTTATAAATCGGAGTCACCTAGTGCAG”, the binding signal was 3560 fluorescence intensity (a.u.).
For “AATCTTTTCTTAATTCTATAATTATCCTTAACGAATTAGTCGGAGTCACCTAGTGCAG” the value was 4150 fluorescence intensity (a.u.); for “AAGTAAATTTAAATCTCAATCCAATAATATAACTTTTAATCGGAGTCACCTAGTGCAG”, 6270 fluorescence intensity (a.u.).
For “CTTAAATAATTTCATTAGATCACTTAACGCCTAAATTACTCGGAGTCACCTAGTGCAG” the value was 12700 fluorescence intensity (a.u.); for “GGTAATTTCACGTTATTGTACTTGCCCTAAGGCAAGTGCTCGGAGTCACCTAGTGCAG”, 9570 fluorescence intensity (a.u.).
As to “GAAATTGATTTATCCAGGGAAACTGTCGTGACAAATTTCGCGGAGTCACCTAGTGCAG”, the binding signal was 49300 fluorescence intensity (a.u.).
Turning to “CTGAACTTAATTAGTGGTTGCCACAGAATCAATAAGCTCCCGGAGTCACCTAGTGCAG”, the binding signal was 14600 fluorescence intensity (a.u.).
On to “GGAAGAATATAATGATTGCCACTTGTTCAGATGTAAAATCCGGAGTCACCTAGTGCAG”, for which the binding signal is 4780 fluorescence intensity (a.u.).

The values above are taken from PMC7819943, “Rice protein-binding microarrays: a tool to detect cis-acting elements near promoter regions in rice”.
